Laboratory results from publication PMC4336329 (PLoS ONE, 2015).
In all, about 310,000 compounds went through this assay and about 2,200 (0.71%) showed an effect of 50% or more. The effect is printed as a negative number. The list shows a part of the results.

biological target: human ether-à-go-go-related gene (hERG) potassium channel (human, UniProt Q12809); test: primary screen, population patch clamp on CHO cells stably expressing hERG
Sequence (Q12809 whole entry, looked up): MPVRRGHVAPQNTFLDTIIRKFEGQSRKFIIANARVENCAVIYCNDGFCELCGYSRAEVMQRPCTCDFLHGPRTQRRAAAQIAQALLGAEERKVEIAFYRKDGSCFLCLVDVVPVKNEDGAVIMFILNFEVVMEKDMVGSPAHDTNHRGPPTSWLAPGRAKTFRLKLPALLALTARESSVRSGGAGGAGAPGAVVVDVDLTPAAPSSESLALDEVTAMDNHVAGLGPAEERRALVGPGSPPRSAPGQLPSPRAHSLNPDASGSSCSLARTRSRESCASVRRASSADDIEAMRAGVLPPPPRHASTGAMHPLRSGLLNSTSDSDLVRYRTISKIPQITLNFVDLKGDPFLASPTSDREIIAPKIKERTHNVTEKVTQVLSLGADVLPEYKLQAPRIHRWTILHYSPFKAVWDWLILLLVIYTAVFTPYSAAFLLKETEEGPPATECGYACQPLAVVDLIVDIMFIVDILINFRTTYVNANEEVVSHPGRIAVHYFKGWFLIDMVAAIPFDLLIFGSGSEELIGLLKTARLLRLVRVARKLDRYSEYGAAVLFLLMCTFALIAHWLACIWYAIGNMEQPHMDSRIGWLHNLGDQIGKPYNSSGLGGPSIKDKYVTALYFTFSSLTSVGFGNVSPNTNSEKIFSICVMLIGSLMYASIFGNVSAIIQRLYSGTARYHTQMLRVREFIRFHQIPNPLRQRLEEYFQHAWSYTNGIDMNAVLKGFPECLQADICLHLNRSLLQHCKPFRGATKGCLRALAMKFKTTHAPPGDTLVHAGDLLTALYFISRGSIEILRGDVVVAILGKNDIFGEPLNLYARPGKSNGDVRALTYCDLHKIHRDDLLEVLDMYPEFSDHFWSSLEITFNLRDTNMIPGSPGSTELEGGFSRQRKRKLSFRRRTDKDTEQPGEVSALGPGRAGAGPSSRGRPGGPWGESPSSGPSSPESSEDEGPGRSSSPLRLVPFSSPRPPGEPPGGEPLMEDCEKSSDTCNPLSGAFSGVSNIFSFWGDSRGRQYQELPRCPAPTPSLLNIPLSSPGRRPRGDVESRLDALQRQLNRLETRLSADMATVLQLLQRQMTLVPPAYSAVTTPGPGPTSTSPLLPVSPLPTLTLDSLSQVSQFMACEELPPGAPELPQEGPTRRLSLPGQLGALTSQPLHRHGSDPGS

| Compound | hERG current change (%, negative = inhibition) at 1uM [%] |
| --- | --- |
| Cc1c(C)n(CCO)c2ncnc(Nc3ccc(F)cc3)c12 | 11.7 |
| COc1cc(C(=O)N2CCN(C3CCCCC3)CC2)cc(OC)c1OC.O=C(O)C(=O)O | 14.5 |
| O=C(CCc1nc2ccccc2c(=O)[nH]1)NNC(=O)COc1ccc(Br)cc1 | 3.51 |
| C[C@@]12C(=O)N(CC3CC3)CC(=O)N1[C@H](/C=C/c1ccccc1)[C@@H]1C(=O)N(c3ccccc3)C(=O)[C@@H]12 | 3.01 |
| Cc1ccc(S(=O)(=O)NC(CC(C)C)C(=O)NCC(c2ccco2)N2CCCCC2)cc1 (centres unmarked) | 13.2 |
| O=C(CCc1c[nH]c2ccccc12)OCc1cccc(C(F)(F)F)c1 | 12.7 |
| CCOc1ccc(C2/C(=C(\O)c3cccc(OC)c3)C(=O)C(=O)N2c2ccccn2)cc1OC (centres unmarked) | 4.78 |
| Cc1ccc(C(=O)OCC(=O)NCCC2=CCCCC2)cc1N | 12.5 |
| O=C(NCc1ccccn1)c1ccc(OC2CCN(Cc3ccccc3)CC2)cc1 | -4.72 |
| CC(C)Cc1cc(C(=O)N2CCN(c3ccc(F)cc3)CC2)no1 | -6.51 |
| N/C(=N\OC(=O)c1ccccc1Br)c1ccc([N+](=O)[O-])cc1 | 6.19 |
| C[C@@H](CSc1ccccc1)CN1CC[C@H](NC(=O)OCc2ccccc2)CCC1=O | 10.5 |
| O=C(N/N=C/c1ccsc1)c1ccc2ccccc2n1 | 8.48 |
| C=CCn1c(O)c(C(=O)CCCCCC)c(=O)[nH]c1=O | 16.7 |
| CC1CC(C)CN(CC(=O)c2cccs2)C1 (centres unmarked) | -7.65 |
| COCCNc1ccc(-c2nn(C)c(=O)c3ccccc23)cc1[N+](=O)[O-] | 17 |
| O=c1c2ccccc2nc(/C=C/c2ccc([N+](=O)[O-])o2)n1CCCO | -23.5 |
| CC(C)CCNC(=O)C1CCCN(S(=O)(=O)c2ccc(F)cc2)C1 (centres unmarked) | 6.89 |
| CC(C)(C)NC(=O)C(c1ccco1)N(C(=O)Cn1nnc(-c2ccc(F)cc2)n1)c1cccc(F)c1 (centres unmarked) | 11.1 |
| Cc1c(C(=O)N2CCCCC2)sc(N)c1C#N | 13.9 |
| O=C(CCS(=O)(=O)c1ccccc1)Nc1nnc(-c2ccco2)o1 | 12.6 |
| O=C(CC1NCCNC1=O)Nc1cccc([N+](=O)[O-])c1 (centres unmarked) | 6.97 |

| Compound | hERG current change (%, negative = inhibition) at 1uM [%] |
| --- | --- |
| Cc1ccc(OCCNC(=O)c2ccccc2SCC(=O)N2CCCC2)cc1 | 30.7 |
| CN1CCN(CCCCC(=O)c2ccccc2)CC1.Cl | 11.1 |
| Cc1cccc(C)c1NC(=O)c1cccn(Cc2ccc3c(c2)OC(F)(F)O3)c1=O | 8.62 |
| O=C(NCc1ccco1)c1ccc(S(=O)(=O)N2CCOCC2)cc1 | 18 |
| OC1CCN(Cc2ccc3ccccc3c2)CC1 | 14.3 |
| COc1ccc(NC(=O)c2ccc3c(c2)C(=O)N(Cc2cccnc2)C3=O)cc1 | 15 |
| CC(=NCc1ccco1)c1c(O)n(-c2ccccc2)c(=O)[nH]c1=O | 4.42 |
| CCN(CC(=O)NCCc1ccc(F)cc1)Cc1nc2ccccc2c(=O)[nH]1 | 1.66 |
| Cc1ccc(C)c(NC(=O)CN(C)C(=O)C2CCCC2)c1 | 14.6 |
| Cc1cc(NC(=O)CSc2nc3c(C)cccc3cc2C)no1 | 19.6 |
| CSc1ncccc1C(=O)OCC(=O)NC(C)(C)C | 9.9 |
| Cn1nnnc1Sc1ncnc2scc(-c3cc4ccccc4o3)c12 | 9.36 |
| CCOc1ccc(CCNC(=O)COC(=O)CCS(=O)(=O)c2ccc(C)cc2)cc1OCC | 28.7 |
| Cc1cccc(-n2cc(CN(C)Cc3nccn3C)c(-c3cccc(F)c3)n2)c1 | 3.33 |
| S=C1COC(c2ccccc2)N1c1ccccc1 (centres unmarked) | 3.4 |
| Cc1cc(C)c(NS(=O)(=O)c2ccc3c(c2)n(C)c(=O)n3C)c(C)c1 | 8.27 |
| Cc1cccn2c(=O)c3cc(C(=O)NCCN4CCOCC4)n(C)c3nc12 | 9.82 |
| CN(C)c1nc(OCCNC(=O)COc2ccc(Cl)cc2Cl)nc(N(C)C)n1 | 0.0232 |
| Cc1cccc(N2CCN(C3=NC(=O)/C(=C\c4cn[nH]c4-c4ccccc4)S3)CC2)c1 | 0.304 |
| CCC(=O)c1ccc(OCC(O)CN2C(=O)NC(C)(C)C2=O)cc1 (centres unmarked) | 18.2 |
| O=C(NCCCN1CCOCC1)c1cccnc1SCc1ccccc1Cl | 13.1 |
| Cc1cccc(C)c1NC(=O)N1CCC(n2c(=O)[nH]c3ccccc32)CC1 | 15.4 |
